These are yes or no findings as the source states them, for the method shown. In cells and extracts the contact can be indirect. Some results given as binding are weak or reduced against the parent protein; the word gives no strength. Where a sequence is shown, tags or fusion partners need not be part of it.
T1: Rvs161p tagged with an internal FLAG tag inserted after amino acid 85 (wild type) (S. cerevisiae) (UniProt P25343)
T1 sequence: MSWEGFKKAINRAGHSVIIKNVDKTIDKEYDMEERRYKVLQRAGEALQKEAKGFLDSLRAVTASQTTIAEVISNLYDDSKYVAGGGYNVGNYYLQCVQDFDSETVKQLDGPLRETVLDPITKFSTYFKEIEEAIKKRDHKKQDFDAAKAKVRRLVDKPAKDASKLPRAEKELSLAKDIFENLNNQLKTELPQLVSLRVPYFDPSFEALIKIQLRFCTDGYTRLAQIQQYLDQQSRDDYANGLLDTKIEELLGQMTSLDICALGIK


Target: T1, Rvs161p tagged with an internal FLAG tag inserted after amino acid 85 (wild type) (S. cerevisiae)
Test: co-IP; lysates of pheromone-induced S. cerevisiae (galactose medium, 10 μg/ml pheromone, 2 hr); Rvs161p-FLAG held on anti-FLAG M2 affinity gel, 1 hr at 4°, 50 mM Tris pH 7.4, 150 mM NaCl, 0.5% Triton X-100; bound Fus2p-GFP detected by western blot with anti-GFP

| binding | Binder |
| --- | --- |
| binds | Fus2p^105–677 (GFP-tagged N-terminal truncation) (domain or fragment, UniProt Q05670 105-677) NSPHEGCKFYKIVQEFYLSEVEYYNNLLTANNVYRKALNSDPRFKNKLVKLDSSDELLLFGNIDTIASISKILVTAIKDLLLAKQRGKMLDANEWQKIFTKNEVQQQLYSTFDISEAFEQHLLRIKSTYTSYFVSHQKQMELFTTLRMNKNHFFNKWYEYCLKESGCIKLEDILKSPMKRLTQWIDTLETLESCYEDILSPELGLKLSPTRRKYSLFSNKLETEVSEYKSNSMYNFSLTPSEIIQSYDEDQFTHLLKPPDKQNKNICNASRQESNLDNSRVPSLLSGSSSYYSDVSGLEIVTNTSTASAEMINLKMDEETEFFTLADHISKFKKVMKGLLELKKNLLKNDLSGIIDISLRRINAWKKVIECERPSGAFFAHDNLISTMCSSYIDKLHEQKNQVTILKLTELETDVMNPLERIIAHCTTVKSKLKDLQALKKDYMLFLQEKKANVRDIKRDLLGMHFQNLQNQMKRELPVFITLIHDTIECILLNYIKVFLKYLEIIAGGKKYLQKDLENMSLNDSIATGQIKNLDILQCYSKSRYMTKRMVRKDWPFPGDPSGSRVVRKLFEL |
| no binding | Fus2p-GFP truncated to residue 580 (domain or fragment, UniProt Q05670 1-580) MFKTSYNLYDLNYPKNDSLTPIRDYKNDYFHKNDDKLPEIVRKPTRKLSKHENKLNDKKFTNKRPASLDLHSIVESLSNKKIYSPINTEIFQNVVRLNLSPQIPNSPHEGCKFYKIVQEFYLSEVEYYNNLLTANNVYRKALNSDPRFKNKLVKLDSSDELLLFGNIDTIASISKILVTAIKDLLLAKQRGKMLDANEWQKIFTKNEVQQQLYSTFDISEAFEQHLLRIKSTYTSYFVSHQKQMELFTTLRMNKNHFFNKWYEYCLKESGCIKLEDILKSPMKRLTQWIDTLETLESCYEDILSPELGLKLSPTRRKYSLFSNKLETEVSEYKSNSMYNFSLTPSEIIQSYDEDQFTHLLKPPDKQNKNICNASRQESNLDNSRVPSLLSGSSSYYSDVSGLEIVTNTSTASAEMINLKMDEETEFFTLADHISKFKKVMKGLLELKKNLLKNDLSGIIDISLRRINAWKKVIECERPSGAFFAHDNLISTMCSSYIDKLHEQKNQVTILKLTELETDVMNPLERIIAHCTTVKSKLKDLQALKKDYMLFLQEKKANVRDIKRDLLGMHFQNLQNQMKRE |
| no binding | Fus2p-GFP with a deletion of residues 570–582 (protein, UniProt Q05670) MFKTSYNLYDLNYPKNDSLTPIRDYKNDYFHKNDDKLPEIVRKPTRKLSKHENKLNDKKFTNKRPASLDLHSIVESLSNKKIYSPINTEIFQNVVRLNLSPQIPNSPHEGCKFYKIVQEFYLSEVEYYNNLLTANNVYRKALNSDPRFKNKLVKLDSSDELLLFGNIDTIASISKILVTAIKDLLLAKQRGKMLDANEWQKIFTKNEVQQQLYSTFDISEAFEQHLLRIKSTYTSYFVSHQKQMELFTTLRMNKNHFFNKWYEYCLKESGCIKLEDILKSPMKRLTQWIDTLETLESCYEDILSPELGLKLSPTRRKYSLFSNKLETEVSEYKSNSMYNFSLTPSEIIQSYDEDQFTHLLKPPDKQNKNICNASRQESNLDNSRVPSLLSGSSSYYSDVSGLEIVTNTSTASAEMINLKMDEETEFFTLADHISKFKKVMKGLLELKKNLLKNDLSGIIDISLRRINAWKKVIECERPSGAFFAHDNLISTMCSSYIDKLHEQKNQVTILKLTELETDVMNPLERIIAHCTTVKSKLKDLQALKKDYMLFLQEKKANVRDIKRDLLGMHVFITLIHDTIECILLNYIKVFLKYLEIIAGGKKYLQKDLENMSLNDSIATGQIKNLDILQCYSKSRYMTKRMVRKDWPFPGDPSGSRVVRKLFEL |
| no binding | Fus2p-GFP with an internal deletion of residues 538–579 (protein, UniProt Q05670) MFKTSYNLYDLNYPKNDSLTPIRDYKNDYFHKNDDKLPEIVRKPTRKLSKHENKLNDKKFTNKRPASLDLHSIVESLSNKKIYSPINTEIFQNVVRLNLSPQIPNSPHEGCKFYKIVQEFYLSEVEYYNNLLTANNVYRKALNSDPRFKNKLVKLDSSDELLLFGNIDTIASISKILVTAIKDLLLAKQRGKMLDANEWQKIFTKNEVQQQLYSTFDISEAFEQHLLRIKSTYTSYFVSHQKQMELFTTLRMNKNHFFNKWYEYCLKESGCIKLEDILKSPMKRLTQWIDTLETLESCYEDILSPELGLKLSPTRRKYSLFSNKLETEVSEYKSNSMYNFSLTPSEIIQSYDEDQFTHLLKPPDKQNKNICNASRQESNLDNSRVPSLLSGSSSYYSDVSGLEIVTNTSTASAEMINLKMDEETEFFTLADHISKFKKVMKGLLELKKNLLKNDLSGIIDISLRRINAWKKVIECERPSGAFFAHDNLISTMCSSYIDKLHEQKNQVTILKLTELETDVMNPLERIIAHCTTVKSKLELPVFITLIHDTIECILLNYIKVFLKYLEIIAGGKKYLQKDLENMSLNDSIATGQIKNLDILQCYSKSRYMTKRMVRKDWPFPGDPSGSRVVRKLFEL |
| no binding | Fus2p^∆580–582 (GFP-tagged) (protein, UniProt Q05670 1-677) MFKTSYNLYDLNYPKNDSLTPIRDYKNDYFHKNDDKLPEIVRKPTRKLSKHENKLNDKKFTNKRPASLDLHSIVESLSNKKIYSPINTEIFQNVVRLNLSPQIPNSPHEGCKFYKIVQEFYLSEVEYYNNLLTANNVYRKALNSDPRFKNKLVKLDSSDELLLFGNIDTIASISKILVTAIKDLLLAKQRGKMLDANEWQKIFTKNEVQQQLYSTFDISEAFEQHLLRIKSTYTSYFVSHQKQMELFTTLRMNKNHFFNKWYEYCLKESGCIKLEDILKSPMKRLTQWIDTLETLESCYEDILSPELGLKLSPTRRKYSLFSNKLETEVSEYKSNSMYNFSLTPSEIIQSYDEDQFTHLLKPPDKQNKNICNASRQESNLDNSRVPSLLSGSSSYYSDVSGLEIVTNTSTASAEMINLKMDEETEFFTLADHISKFKKVMKGLLELKKNLLKNDLSGIIDISLRRINAWKKVIECERPSGAFFAHDNLISTMCSSYIDKLHEQKNQVTILKLTELETDVMNPLERIIAHCTTVKSKLKDLQALKKDYMLFLQEKKANVRDIKRDLLGMHFQNLQNQMKRVFITLIHDTIECILLNYIKVFLKYLEIIAGGKKYLQKDLENMSLNDSIATGQIKNLDILQCYSKSRYMTKRMVRKDWPFPGDPSGSRVVRKLFEL |
| no binding | Fus2p^415–626 F436A fused to GFP (domain or fragment, UniProt Q05670 415-626) MINLKMDEETEFFTLADHISKAKKVMKGLLELKKNLLKNDLSGIIDISLRRINAWKKVIECERPSGAFFAHDNLISTMCSSYIDKLHEQKNQVTILKLTELETDVMNPLERIIAHCTTVKSKLKDLQALKKDYMLFLQEKKANVRDIKRDLLGMHFQNLQNQMKRELPVFITLIHDTIECILLNYIKVFLKYLEIIAGGKKYLQKDLENMSL |
| no binding | Fus2p^415–626 F584A fused to GFP (domain or fragment, UniProt Q05670 415-626) MINLKMDEETEFFTLADHISKFKKVMKGLLELKKNLLKNDLSGIIDISLRRINAWKKVIECERPSGAFFAHDNLISTMCSSYIDKLHEQKNQVTILKLTELETDVMNPLERIIAHCTTVKSKLKDLQALKKDYMLFLQEKKANVRDIKRDLLGMHFQNLQNQMKRELPVAITLIHDTIECILLNYIKVFLKYLEIIAGGKKYLQKDLENMSL |
| no binding | Fus2p^415–626 Y599A fused to GFP (domain or fragment, UniProt Q05670 415-626) MINLKMDEETEFFTLADHISKFKKVMKGLLELKKNLLKNDLSGIIDISLRRINAWKKVIECERPSGAFFAHDNLISTMCSSYIDKLHEQKNQVTILKLTELETDVMNPLERIIAHCTTVKSKLKDLQALKKDYMLFLQEKKANVRDIKRDLLGMHFQNLQNQMKRELPVFITLIHDTIECILLNAIKVFLKYLEIIAGGKKYLQKDLENMSL |
| no binding | Fus2p^458–677 (GFP-tagged N-terminal truncation) (domain or fragment, UniProt Q05670 458-677) IIDISLRRINAWKKVIECERPSGAFFAHDNLISTMCSSYIDKLHEQKNQVTILKLTELETDVMNPLERIIAHCTTVKSKLKDLQALKKDYMLFLQEKKANVRDIKRDLLGMHFQNLQNQMKRELPVFITLIHDTIECILLNYIKVFLKYLEIIAGGKKYLQKDLENMSLNDSIATGQIKNLDILQCYSKSRYMTKRMVRKDWPFPGDPSGSRVVRKLFEL |
